# Test results: paper PMC6919601, “Identification of Plasmodium dipeptidyl aminopeptidase allosteric inhibitors by high throughput screening” (PLoS ONE, 2019)
# About 230 (0.21%) of roughly 110,000 compounds showed an effect of 50% or more. This is one part of the list.
# Target: DPAP1 (Plasmodium falciparum, UniProt Q8IIJ9)
# Experiment: primary screen, percent inhibition; read by cleavage of a fluorogenic dipeptide substrate; higher = more effect of the substance
# Set-up: species or system P. falciparum D10 trophozoite lysates; single well
# 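Further: 30 min substrate incubation versus DMSO and 10 µM JCP410 controls.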
# Chain of DPAP1 (Q8IIJ9 whole entry, looked up): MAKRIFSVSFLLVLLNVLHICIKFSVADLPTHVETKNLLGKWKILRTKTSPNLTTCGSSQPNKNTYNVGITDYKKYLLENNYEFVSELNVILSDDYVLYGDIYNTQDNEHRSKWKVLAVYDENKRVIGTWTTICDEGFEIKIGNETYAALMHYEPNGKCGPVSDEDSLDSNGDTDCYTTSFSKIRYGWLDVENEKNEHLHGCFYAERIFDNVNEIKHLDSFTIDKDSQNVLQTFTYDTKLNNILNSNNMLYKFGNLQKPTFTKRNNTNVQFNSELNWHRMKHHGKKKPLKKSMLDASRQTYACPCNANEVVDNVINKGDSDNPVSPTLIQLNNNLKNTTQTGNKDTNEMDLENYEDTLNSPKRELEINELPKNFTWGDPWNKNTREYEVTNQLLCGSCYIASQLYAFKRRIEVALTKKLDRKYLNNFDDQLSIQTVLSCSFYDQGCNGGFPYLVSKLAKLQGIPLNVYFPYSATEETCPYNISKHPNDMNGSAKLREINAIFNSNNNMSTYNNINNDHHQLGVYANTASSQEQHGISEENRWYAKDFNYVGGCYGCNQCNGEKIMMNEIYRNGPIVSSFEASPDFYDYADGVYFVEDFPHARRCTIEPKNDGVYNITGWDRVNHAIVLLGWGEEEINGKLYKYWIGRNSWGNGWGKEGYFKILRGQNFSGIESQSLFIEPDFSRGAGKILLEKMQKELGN
row,Structure (SMILES),% Inhibition @ 10 uM
1,CCc1c(C#N)c(SCc2c(C)noc2C)nc2c1C(=O)CC(C)(C)C2,-6.51%
2,CC1=C(C#N)C(c2ccc(OCc3ccccc3)cc2)C2=C(O)CC(C)(C)CC2=N1 (stereo not drawn),2.44%
3,COc1ccc(C(=O)CSc2nnc(C3COc4ccccc4O3)n2-c2ccccc2)cc1OC (stereo not drawn),-1.85%
4,CCN(CC)CC#CC(O)c1ccccc1 (stereo not drawn),-3.26%
5,COc1ccc(CNS(=O)(=O)c2ccc(OCC(C)C)cc2)cc1,-2.44%
6,Cc1cc(C)cc(-n2c(C)cc(/C=C3/NC(=O)N(Cc4ccccc4F)C3=O)c2C)c1,-0.0626%
7,NC1=NC(c2ccccc2Cl)n2c(nc3ccccc32)N1 (stereo not drawn),-5%
8,Cc1ccc(C(=O)Nc2ccn(Cc3ccc(F)cc3)n2)o1,-3.26%
9,CN1CCc2c(sc3c2C(=O)NC(c2ccc(-c4ccc(Cl)c(Cl)c4)o2)N3)C1 (stereo not drawn),-0.142%
10,CCOc1ccc(C2C(C#N)=C(N)Oc3c2ccc(=O)c2c(C)oc(C)c32)cc1 (stereo not drawn),0.778%
11,CC1(C)NC(=O)N(CC(O)COc2ccccc2-c2ccccc2)C1=O (stereo not drawn),0.275%
12,Cc1ccc2c(c1)C1CN(C)CCC1N2C(=O)C(C)C (stereo not drawn),-1.98%
13,Cc1ccc(C(=O)Nc2sc3c(c2C(=O)NCCO)CCC(C(C)(C)C)C3)cc1 (stereo not drawn),11.6%
14,O=C(COCc1cc(-c2ccc(F)cc2)on1)N1CCOCC1,0.44%
15,COc1ccc(NC=C(C(=O)Nc2ccccc2C)C(=O)Nc2ccccc2C)cc1,-6.33%
16,CN1C(N)=NC(=O)/C1=C/c1ccc(Cl)cc1Cl,5.75%
17,COc1ccc(-c2noc(N3CCC(C(=O)N4CCN(Cc5ccccc5)CC4)CC3)n2)cc1,-5.66%
18,Cc1ccc(C)c(OCc2cc(=O)n3oc(C)cc3n2)c1,4.09%
19,Cc1cc(C)n(-c2ncc(-c3ccc(Br)cc3)s2)n1,-3.92%
20,Cc1ccc(-n2c3c(c(=O)[nH]c2=O)C(C(F)(F)F)(C(F)(F)F)NC(c2cccnc2)=N3)cc1,-0.173%
21,Cc1ccc(S(=O)(=O)Nc2cccc(-c3cn4ccsc4n3)c2)c(C)c1,0.777%
22,O=C(CSc1nc[nH]n1)Nc1ccccn1,1.76%
23,Cc1ccc2c3c(ccc2n1)N=C1CCCC(O)=C1C3c1ccc(F)cc1 (stereo not drawn),-6.58%
24,COc1ccc(-c2c(NCCc3ccc(C)cc3)c(=O)c2=O)cc1,-4.99%
25,Cc1ccccc1C(=O)Nc1nnc(-c2ccccc2Cl)s1,5.94%
26,CNC(=O)C12CCC(C)(c3nc4cc(C)c(C)cc4nc31)C2(C)C (stereo not drawn),-1.61%
27,CCN(CC)CCCNC(=O)C1CCCN(c2nnc(C)c3c(C)n(-c4ccccc4)nc23)C1 (stereo not drawn),6.62%
